Article PMC5636748
Results are given in words; binding and its absence hold for the method and conditions named. In cells and extracts the contact can be indirect. Some entries that bind do so weakly or less than the wild type.

Sequences of proteins named here, by UniProt entry; tags and fusion partners are left off.
UniProt Q8NDV7: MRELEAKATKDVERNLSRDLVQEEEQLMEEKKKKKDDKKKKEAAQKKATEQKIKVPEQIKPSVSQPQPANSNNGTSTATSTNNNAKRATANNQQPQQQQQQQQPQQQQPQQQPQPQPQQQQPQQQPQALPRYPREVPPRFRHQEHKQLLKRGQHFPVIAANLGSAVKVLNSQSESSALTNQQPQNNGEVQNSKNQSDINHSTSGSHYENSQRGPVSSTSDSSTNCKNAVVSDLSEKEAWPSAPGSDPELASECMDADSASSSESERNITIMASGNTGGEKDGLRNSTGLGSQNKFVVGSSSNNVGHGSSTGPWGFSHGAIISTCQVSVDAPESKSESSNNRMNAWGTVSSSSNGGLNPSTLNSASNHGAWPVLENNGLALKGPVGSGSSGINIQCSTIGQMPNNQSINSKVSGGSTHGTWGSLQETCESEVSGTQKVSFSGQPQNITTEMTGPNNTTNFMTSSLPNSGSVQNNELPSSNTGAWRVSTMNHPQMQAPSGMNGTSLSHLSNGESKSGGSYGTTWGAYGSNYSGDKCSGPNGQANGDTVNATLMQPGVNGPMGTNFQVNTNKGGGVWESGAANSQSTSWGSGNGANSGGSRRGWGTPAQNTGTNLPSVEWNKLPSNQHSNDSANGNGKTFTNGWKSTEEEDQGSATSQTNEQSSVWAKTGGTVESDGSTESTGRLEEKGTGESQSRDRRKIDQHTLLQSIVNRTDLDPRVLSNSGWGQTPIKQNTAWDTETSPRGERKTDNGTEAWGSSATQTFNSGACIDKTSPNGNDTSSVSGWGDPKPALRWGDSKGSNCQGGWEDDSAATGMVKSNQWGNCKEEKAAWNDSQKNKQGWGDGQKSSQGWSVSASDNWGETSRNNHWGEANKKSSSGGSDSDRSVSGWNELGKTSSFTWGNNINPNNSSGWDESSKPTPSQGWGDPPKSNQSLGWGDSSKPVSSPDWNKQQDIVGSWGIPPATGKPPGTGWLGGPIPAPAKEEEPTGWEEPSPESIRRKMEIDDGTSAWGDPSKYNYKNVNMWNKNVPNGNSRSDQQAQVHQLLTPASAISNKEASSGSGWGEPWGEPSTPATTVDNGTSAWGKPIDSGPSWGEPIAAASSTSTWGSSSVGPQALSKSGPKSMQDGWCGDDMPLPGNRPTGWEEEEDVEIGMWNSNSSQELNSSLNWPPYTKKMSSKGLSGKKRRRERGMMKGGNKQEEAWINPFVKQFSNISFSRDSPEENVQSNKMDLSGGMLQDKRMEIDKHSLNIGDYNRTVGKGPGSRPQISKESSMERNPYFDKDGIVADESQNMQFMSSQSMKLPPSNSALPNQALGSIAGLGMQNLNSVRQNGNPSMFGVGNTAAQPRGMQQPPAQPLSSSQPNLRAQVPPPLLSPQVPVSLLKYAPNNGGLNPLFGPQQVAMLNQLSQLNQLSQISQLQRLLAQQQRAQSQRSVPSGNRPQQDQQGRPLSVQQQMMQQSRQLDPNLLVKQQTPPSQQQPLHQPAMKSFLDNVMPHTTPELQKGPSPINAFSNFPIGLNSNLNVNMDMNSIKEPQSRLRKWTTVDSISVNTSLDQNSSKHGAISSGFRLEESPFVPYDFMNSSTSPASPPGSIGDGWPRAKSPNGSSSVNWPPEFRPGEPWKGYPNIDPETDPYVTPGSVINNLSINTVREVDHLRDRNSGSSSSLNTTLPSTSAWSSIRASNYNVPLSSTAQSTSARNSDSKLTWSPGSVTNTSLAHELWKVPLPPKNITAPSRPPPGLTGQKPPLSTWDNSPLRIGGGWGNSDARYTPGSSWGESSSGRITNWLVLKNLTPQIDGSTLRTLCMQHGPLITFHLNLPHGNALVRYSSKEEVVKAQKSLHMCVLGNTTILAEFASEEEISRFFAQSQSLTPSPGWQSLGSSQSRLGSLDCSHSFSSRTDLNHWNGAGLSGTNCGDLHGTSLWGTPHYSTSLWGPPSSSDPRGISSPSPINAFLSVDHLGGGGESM
UniProt Q9UPQ9: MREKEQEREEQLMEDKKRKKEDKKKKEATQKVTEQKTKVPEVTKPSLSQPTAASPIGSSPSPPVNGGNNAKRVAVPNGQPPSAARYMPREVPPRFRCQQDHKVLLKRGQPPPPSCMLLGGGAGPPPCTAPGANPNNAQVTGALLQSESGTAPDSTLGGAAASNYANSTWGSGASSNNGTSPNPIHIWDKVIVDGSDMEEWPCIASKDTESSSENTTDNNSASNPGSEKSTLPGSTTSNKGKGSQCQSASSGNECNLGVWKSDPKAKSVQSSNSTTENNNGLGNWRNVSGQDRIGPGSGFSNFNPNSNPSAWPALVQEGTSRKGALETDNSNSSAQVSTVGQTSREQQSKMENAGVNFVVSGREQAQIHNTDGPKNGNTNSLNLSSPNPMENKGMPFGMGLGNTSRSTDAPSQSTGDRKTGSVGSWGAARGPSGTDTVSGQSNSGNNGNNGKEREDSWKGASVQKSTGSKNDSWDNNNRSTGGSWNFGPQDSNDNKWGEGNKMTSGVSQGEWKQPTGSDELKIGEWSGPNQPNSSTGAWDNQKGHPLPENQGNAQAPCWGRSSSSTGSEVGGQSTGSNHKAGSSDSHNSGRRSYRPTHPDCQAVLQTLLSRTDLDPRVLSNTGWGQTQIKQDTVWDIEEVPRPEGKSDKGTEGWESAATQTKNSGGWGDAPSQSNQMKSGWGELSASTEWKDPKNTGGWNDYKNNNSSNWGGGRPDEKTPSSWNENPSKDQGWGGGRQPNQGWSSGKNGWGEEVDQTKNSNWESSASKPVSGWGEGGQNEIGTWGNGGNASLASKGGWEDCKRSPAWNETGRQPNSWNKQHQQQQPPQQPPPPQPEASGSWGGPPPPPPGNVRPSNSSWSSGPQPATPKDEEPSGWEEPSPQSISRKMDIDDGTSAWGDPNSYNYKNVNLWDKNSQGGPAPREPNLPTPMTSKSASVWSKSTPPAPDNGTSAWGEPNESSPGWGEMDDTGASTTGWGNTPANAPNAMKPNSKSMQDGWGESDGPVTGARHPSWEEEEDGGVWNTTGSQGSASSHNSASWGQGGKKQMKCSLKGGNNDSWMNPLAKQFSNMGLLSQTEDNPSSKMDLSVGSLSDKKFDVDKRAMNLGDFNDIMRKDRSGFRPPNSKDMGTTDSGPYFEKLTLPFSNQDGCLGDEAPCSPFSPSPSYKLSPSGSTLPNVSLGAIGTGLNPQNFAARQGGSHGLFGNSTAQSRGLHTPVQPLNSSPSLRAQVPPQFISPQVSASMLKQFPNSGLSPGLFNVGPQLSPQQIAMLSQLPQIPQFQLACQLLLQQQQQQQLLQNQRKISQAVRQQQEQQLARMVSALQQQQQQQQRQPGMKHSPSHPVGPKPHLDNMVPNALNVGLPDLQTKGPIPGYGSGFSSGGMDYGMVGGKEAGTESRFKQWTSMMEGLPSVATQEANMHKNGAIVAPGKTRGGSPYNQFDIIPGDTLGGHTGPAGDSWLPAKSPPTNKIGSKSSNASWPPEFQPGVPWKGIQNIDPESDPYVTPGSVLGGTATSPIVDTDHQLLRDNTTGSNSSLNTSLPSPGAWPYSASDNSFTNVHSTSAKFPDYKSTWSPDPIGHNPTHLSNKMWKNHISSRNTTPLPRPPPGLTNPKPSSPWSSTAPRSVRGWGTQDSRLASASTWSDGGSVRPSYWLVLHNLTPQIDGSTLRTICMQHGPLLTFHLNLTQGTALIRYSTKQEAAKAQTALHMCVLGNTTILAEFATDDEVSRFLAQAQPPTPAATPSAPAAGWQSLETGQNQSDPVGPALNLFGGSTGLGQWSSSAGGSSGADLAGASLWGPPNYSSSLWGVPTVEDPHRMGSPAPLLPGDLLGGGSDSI
UniProt P06730: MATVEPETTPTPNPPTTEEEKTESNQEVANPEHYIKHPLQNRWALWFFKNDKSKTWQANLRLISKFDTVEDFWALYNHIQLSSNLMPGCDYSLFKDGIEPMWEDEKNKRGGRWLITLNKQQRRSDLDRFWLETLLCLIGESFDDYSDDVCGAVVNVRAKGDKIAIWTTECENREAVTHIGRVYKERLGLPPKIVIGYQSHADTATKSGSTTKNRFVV
UniProt O60573: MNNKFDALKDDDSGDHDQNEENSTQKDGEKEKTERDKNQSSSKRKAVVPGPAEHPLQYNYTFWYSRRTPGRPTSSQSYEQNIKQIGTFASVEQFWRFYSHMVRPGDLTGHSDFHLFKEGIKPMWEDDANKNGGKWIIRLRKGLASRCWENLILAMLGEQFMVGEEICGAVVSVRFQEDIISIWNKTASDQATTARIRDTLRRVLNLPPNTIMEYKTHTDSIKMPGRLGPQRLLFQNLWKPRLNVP

Tests used:
[1] = target: endogenous TNRC6A (human (endogenous in HEK293T)) (UniProt Q8NDV7); assay: co-IP; endogenous TNRC6A of HEK293T immunoprecipitated with the anti-TNRC6A antibody (control IgG beside it) from lysates of cells transfected with Flag-tagged eIF4E1 or eIF4E2, in the presence of RNase A; Western blotting
TNRC6A (human) = TNRC6A (human) (UniProt Q8NDV7); assay: co-IP; both proteins expressed from plasmids in HEK293T, lysed 48 h after transfection in Co-IP buffer (30 mmol/L Hepes pH 7.5, 100 mmol/L NaCl, 0.5% NP40) with RNase A; TNRC6 protein or Flag-tagged TNRC6A truncation mutant immunoprecipitated (anti-Flag in Figure 2C), 2-4 h at 4°C; washed with TBST (500 mmol/L NaCl); Western blotting
TNRC6B (human) = TNRC6B (human) (UniProt Q9UPQ9); assay: as above

binding [1] | binding (TNRC6A (human)) | binding (TNRC6B (human)) | Substance
no binding | – | – | Flag-tagged eIF4E1 (from UniProt P06730 1-217)
binds | – | – | Flag-tagged eIF4E2 (from UniProt O60573 1-245)
– | no binding | no binding | eIF4E1 (expressed from a plasmid, Figure 2A) (from UniProt P06730 1-217)
– | binds | binds | eIF4E2 (expressed from a plasmid, Figure 2A) (from UniProt O60573 1-245)
